Data reported in the supplement of paper PMC11417369.
This is one part of the list.

Test system: PfSIP2 AP2 domain 1 (GST-tagged)
Assay: gcPBM binding intensity (ln(normalized median fluorescence intensity)); higher = stronger DNA binding
In short: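 An Agilent 4 × 180k array carrying primer-extended double-stranded 36-bp intergenic genomic probes and negative controls received GST-tagged P. falciparum DNA-binding domains expressed in E. coli, about 25 μg on average, for 1 h. The binding buffer contained 1× PBS, 1% milk, 0.2 mg/ml BSA, 0.5% salmon testes DNA and 0.03% Triton X-100. Binding intensity is the top Masliner-normalised natural-log median intensity across replicate spots of either probe orientation, read after Alexa488 anti-GST antibody staining and a 488 nm scan.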

| Sequence | gcPBM binding intensity (ln) |
| --- | --- |
| TAACTAATATATAAAACACACATCATAAAAATATAA [CACACA_site768] | 6.96 |
| TTTTGTTGAAAAGTAAGATATTCCAACATGTTTTTA [CACACA_negctrl_site391] | 6.69 |
| ATATCATTTTCCTGCACACATAAATTTATATAATAT [CACACA_site1048] | 7.82 |
| ACACATAAATGAATAAATAAATAAATATAAATATAA [CACACA_negctrl_site1784] | 6.73 |
| TTCTTACATGAGTGTACACACTTTTTTTCAGAAAAT [CACACA_site4215] | 7.39 |
| GGTGGGGAGGAGTAATGTACAAATTAACATATTATG [XGTACX_site6666] | 8.48 |
| AATAGTCGGGTGCATACACACCTTAAATATAATATA [CACACA_site8271] | 11.3 |
| TTATAAAATATTTATGCATGTGAAGAATATTATAAA [TGCATGCA_site1047] | 7.12 |
| GAAAAAAGTATCAAGGTGCGTATATACATCAAAATA | 9.51 |
| TATATATTATAAAATTGTACATATATTAAATTTTTT [XGTACX_site5852] | 6.93 |
| AAATGTTGAGCAGTACAAAAAAAAAAAAAAAAAAAA [GTGCAC_negctrl_site518] | 7.06 |
| CAAAACAAAACGTATGCACACAATTAAAATATTAAA [CACACA_site5815] | 7.78 |
| TTTTTTTTTTAATTGGGTACATATATAATTTAAGAA [XGTACX_site2732] | 7.02 |
| CATTTATATAAAAGAACACACATATAAAATATTATT [CACACA_site3601] | 6.96 |
| AAGATACCAATGAAATGTACATATATATAAATATAA [XGTACX_site2135] | 7.05 |
| ATATATATATATGTATGTACGTATGTATTTACTGCT [XGTACX_site3839] | 8.95 |
| TTCATACATATTTGAAGTACATTTAAAAATGTCCTT [XGTACX_site747] | 6.77 |
| TCCAATATATTTATGAGTACTTATAAATTATACGTT [XGTACX_site742] | 7.4 |
| GAAGTAATTTCATATACACACATATACATACATACA [CACACA_site6753] | 7.45 |
| TTTGAATAAAAACAAAAAATTAAATTAAATTAAATA [CACACA_negctrl_site312] | 6.72 |
| TATTTATAATTATAATAATATATATATATATATATA [TGCATGCA_negctrl_site173] | 8.72 |
| ATTGTGTTAATAAAATGTACATTTTCTCTACATTAA [XGTACX_site2766] | 7.04 |

| Sequence | gcPBM binding intensity (ln) |
| --- | --- |
| ATTAAATAAAAAAACACACACATATATACCTATATA [CACACA_site5837] | 6.99 |
| CAAAACATTTTATCTACACACATATATAAATAAATA [CACACA_site3220] | 6.92 |
| AATAAAACATAATAATGTACTCAAAGGTTTAACTTG [XGTACX_site4711] | 6.82 |
| AACGTGTGGAGAATTATAAATGAGTAAAAAATATAT [XGTACX_negctrl_site562] | 7.29 |
| GGGGGGAGGGTGAATACACACGTAATAATCATAAAC [CACACA_site8502] | 9.43 |
| ATATATGTGTATGTATGTACTTATATTTTTTTTTAT [XGTACX_site1733] | 7 |
| GCAAATCAATTTTTTTTTAAAACTCATTTTTTCGTT [CACACA_negctrl_site1136] | 6.77 |
| TCCGTTATATATGTGTGTACATATAATATATCCTCA [XGTACX_site2588] | 7.1 |
| AAAAATGAAAGTAAGACATGCATGGAATTTTTTTTA [TGCATGCA_site347] | 6.68 |
| TTTTTTTTTTATGAAAGTACATATGAAAAATACGAA [XGTACX_site3451] | 7.72 |
| TACTATAACGCACATACACACAAAAAAAAAAAAAAA [CACACA_site8073] | 7.4 |
| TATATATATATTTTTGCATGTAATTTTTATGAGGAC [TGCATGCA_site884] | 8.44 |
| ATATGGTGATATAGGTGTACATTTTGATGCTTATTT [XGTACX_site4283] | 6.95 |
| TTATACATGAAATATTGTACACATATATATATATAT [XGTACX_site4378] | 9.3 |
| TTTTTTTTTTTCTTAGTGCGCGTGAAAAATATAAAA | 7.89 |
| AATTAGATTATGCACACACACTTAAAAATAATAAAT [CACACA_site7015] | 8.15 |
| TTACTCAAACAAACAAAAAAAAAAAAAAAAAAAAAA [TGCATGCA_negctrl_site457] | 6.94 |
| ATATATAGAATGTGTACACACATATGTATTTATATA [CACACA_site810] | 7.34 |
| ATTTTTTATGGACAAAAGACCTCTGATGTAAATATA [CACACA_negctrl_site1081] | 6.98 |
| GATAAATGTATATATGCATGCACATATATTTATACA [TGCATGCA_site748] | 8.57 |
| TATTTGTAATATTATACACACATTATATATTACAAA [CACACA_site5804] | 7.09 |
| CGTAGCCACACTAACACACACAAATATACACAATCA [CACACA_site7379] | 7.01 |

| Sequence | gcPBM binding intensity (ln) |
| --- | --- |
| ATTTAAATAACGTATGTATATACATATATATATATA [TGCATGCA_negctrl_site207] | 9.43 |
| TATTTTGTATATAAATGTACAAGTATATATTTTTTC [XGTACX_site7855] | 6.74 |
| TATGAATATTTGTATACATGCATATAGAAATCATAT [TGCATGCA_site533] | 7.04 |
| ATATATTATATATATATATATATATATTATTATTGT [TGCATGCA_negctrl_site286] | 7.73 |
| TGCATTATTTACAAGGTGCGTTACAAATGTGTAACA [GTGCAC_site9442] | 9.7 |
| GCTTTAATCTGAAAGTGTACAGATAATATATTTATA [XGTACX_site2462] | 7.15 |
| AGATACGATTATATGCGTTCAATATACCAAATAATT [TGCATGCA_negctrl_site501] | 6.87 |
| CTTTGTGTTAAAAGTAGTACACCAAAAATATGACTT [XGTACX_site622] | 7.28 |
| CACGCGCCCGGACACACACACACACCCATATATATA [CACACA_site5251] | 7.82 |
| TTTTTCATCATATGTTGTACAATGTGTAGATATATT [XGTACX_site3195] | 7.25 |
| ATTTATATATAATATACACACATATAATCCACATAT [CACACA_site699] | 7.1 |
| AAGAGAAATTATAACATGTGAAATGTATTATATATA [TGCATGCA_negctrl_site254] | 6.99 |
| TATCTCTTATTTTATTGTACTTAACTATGCTATAAT [XGTACX_site4904] | 6.92 |
| AAAAATAAAAAAATGACACACATATATATATATATA [CACACA_site2307] | 9.63 |
| TAAGTATAATATTGATGTACATATAATAACTTGTAT [XGTACX_site417] | 7.03 |
| TAGTTAACAAATAATGCACACAAATGGATAAAATTA [CACACA_site9240] | 7.83 |
| ATTCAAATTGTAGAAACACACAAAAACTTAACATAT [CACACA_site2617] | 6.99 |
| CATATGATATGTTATACACACACGTATATATGAATT [CACACA_site3446] | 6.93 |
| AAGGGAAAATTAAGGTTGCACTAAAAATATATCTTT [GTGCAC_site9608] | 7.85 |
| ATGAACATACAATATACACACATATATATTTATATT [CACACA_site4609] | 7.12 |
| AATTATATTCTATTCACACATATTCCAACCTCTTTT [CACACA_site4670] | 6.92 |
| TTTGATGGTACACGTACACACCTTGCAAATATTTTT [CACACA_site4645] | 7.19 |

| Sequence | gcPBM binding intensity (ln) |
| --- | --- |
| TGAAAGAACCTGATTACACACATAAATTATATATAT [CACACA_site26] | 7.3 |
| ATGAATATAATAAAGAAACACACGTATACATAATGA [CACACA_site1355] | 6.9 |
| TGTATGTTGTAAAATTGTACATATATATTATATTTA [XGTACX_site4883] | 7 |
| AAAAGATAATTATGCACACACACACCCAGACACAAC [CACACA_site5428] | 7.85 |
| AGTTCTTCGTACCAAAAAACGGCACGCATATGTATA [TGCATGCA_negctrl_site469] | 6.99 |
| TGTATTCATACATGCACACGTACATATTTAAATATA [CACACA_site3926] | 7.32 |
| TATTTCAAAAAAAAAAAAAATAAAAAACAACAACAA [CACACA_negctrl_site893] | 6.91 |
| AAAAAAAATTATATATGTACTTATTAATCCTTATAT [XGTACX_site1389] | 6.86 |
| ATTTATATATCGCCCACACACATGTGATTATTTATA [CACACA_site6905] | 7.15 |
| TACTACTATCTATATTGTACAAAAGGTGCCTACAAA [XGTACX_site4267] | 7.65 |
| TTCATTTATTTACTTACACACTTTATATATGTGGTT [CACACA_site4901] | 7.01 |
| TCTATTCAAAATAAAAGTACTAGCATGTGAATTGTT [XGTACX_site5530] | 6.94 |
| TACAAGTTTTTAAAGTGTACCAAAAAAAAAGAATAA [XGTACX_site979] | 7.37 |
| ATATATAAAATATACACACATACTGTTCATTTAAAG [CACACA_site4169] | 6.98 |
| ATCCTACTATGTTATACACACAATTACTTTTTTCTC [CACACA_site3712] | 7.39 |
| TTACAACAGAATGGTATTTTTTTATTTTAAAGAAAA [TGCATGCA_negctrl_site230] | 6.71 |
| AATATTTATGTGAAGACACACAACTGTTTATTATAT [CACACA_site3447] | 6.82 |
| TTTTTTTTTTTTTGGTGTACTTTTTTTAGAACGCAA [XGTACX_site4207] | 7.58 |
| AAAATTTATATAGGCACACAAATAAATTAATACATA [CACACA_site1418] | 6.76 |
| AAAAATGAAAGGTGTACACATACAAACATAGAAAGA [CACACA_site5020] | 7.45 |
| TTTTTTCTTTCTTTCAAACACACATTAATTTTATTC [CACACA_site2733] | 6.91 |
| ATATTAGAAATATGAATAGAAAGAATATATAAGTAT [CACACA_negctrl_site682] | 7.15 |
